Source: the supplement of paper PMC10369915
Some of the results follow. No stated cut-off is given here; in the data, active = 3.2 or more and inactive = the rest. Only a few entries rise above the background.

B1: YWHAG_Y20 (peptide)
chain: EQAERYDDMAA
B2: YWHAG_Y133_YF (peptide)
chain: GDFFRYLAEVA
B3: ZAP70_Y451 (peptide)
chain: SMGMKYLEEKN
B4: ZFP69_Y109 (peptide)
chain: VMLENYSNLVS
B5: ZAP70_Y178 (peptide)
chain: AERKLYSGAQT
B6: ZDHHC23_Y127_YF (peptide)
chain: VLALWYFFLTH
B7: YWHAG_Y131_Y133S_YF (peptide)
chain: MKGDFYRSLAE
B8: ZNF24_Y335_G331W (peptide)
chain: TWEKPYECVQC
B9: YWHAG_Y133_Y133S (peptide)
chain: GDYYRSLAEVA
B10: ZMYM2_Y1033_V1028I (peptide)
chain: IFGEEYEEQPR
B11: ZAP70_Y493_A495V_YF (peptide)
chain: ADDSFYTVRSA
B12: YWHAG_Y131_D129E_YF (peptide)
chain: MKGEFYRFLAE
B13: ZAP70_Y492_YF (peptide)
chain: GADDSYFTARS
B14: YWHAG_Y49_K50Q (peptide)
chain: LLSVAYQNVVG
B15: YWHAZ_Y149_S145L (peptide)
chain: QLQQAYQEAFE
B16: ZIM2_Y411 (peptide)
chain: HSQEDYFECFQ
B17: ZNF24_Y335 (peptide)
chain: TGEKPYECVQC
B18: ZAP70_Y493_A495V (peptide)
chain: ADDSYYTVRSA
B19: ZBP1_Y165 (peptide)
chain: KAWTIYRPEDS
B20: YWHAG_Y131 (peptide)
chain: MKGDYYRYLAE
B21: ZNF100_Y6_M8V (peptide)
chain: MDDPRYGVCPL
B22: ZNF236_Y644_S643G (peptide)
chain: QFFQGYFNNNF
B23: ZC3H18_Y372_A368T_YF (peptide)
chain: FTDPFYDFEIE
B24: YWHAG_Y133_Y133S_YF (peptide)
chain: GDFFRSLAEVA
B25: YWHAG_Y131_YF (peptide)
chain: MKGDFYRFLAE
B26: ZC3H18_Y371_YF (peptide)
chain: PFADPYFDFEI
B27: ZAP70_Y525_W523L (peptide)
chain: SDVLSYGVTMW
B28: ZG16B_Y136 (peptide)
chain: RGMVMYTSKDR
B29: ZAP70_Y492 (peptide)
chain: GADDSYYTARS
B30: ZG16_Y30 (peptide)
chain: SYSGEYGGGGG
B31: ZBP1_Y165_R166H (peptide)
chain: KAWTIYHPEDS
B32: ZAP70_Y451_G448E (peptide)
chain: SMEMKYLEEKN
B33: ZAP70_Y493 (peptide)
chain: ADDSYYTARSA
B34: ZFYVE16_Y36 (peptide)
chain: DVQNAYDSNHC
B35: ZIM2_Y411_Q408R (peptide)
chain: HSREDYFECFQ
B36: ZAP70_Y569_C564R (peptide)
chain: RPPELYALMSD
B37: ZBTB46_Y14_T11A (peptide)
chain: EIASHYRHLLR

Molecular target: SHP2 C-SH2 domain E139D
Assay: enrichment score (SH2-bound / input frequency) (ratio); bacterial display of known human phosphotyrosine sites (pTyr-Var adds point mutants) read by sequencing; higher = stronger binding; tyrosines were phosphorylated by kinases first
Conditions: peptide library: pTyr-Var
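Further: displayed peptides selected on beads carrying the immobilized SH2 domain, with library peptides lacking any tyrosine serving as negative controls.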

Enrichment score, inactive:
B1 0.477, B2 0.881, B3 0.849, B4 1.08, B5 0.464, B7 0.564, B8 2.28, B9 0.737, B10 0.672, B11 0.588, B12 0.817, B13 0.443, B14 1.78, B15 1.2, B16 0.815, B17 0.663, B18 0.579, B19 0.74, B20 0.688, B21 0.696, B22 2.7, B23 0.845, B24 0.713, B25 0.95, B26 0.603, B27 0.954, B28 0.763, B29 0.435, B30 0.542, B31 1.27, B32 0.867, B33 0.284, B34 0.844, B35 0.949, B36 0.883, B37 0.713

Enrichment score, active:
B6 3.48

Molecular target: SHP2 C-SH2 domain wild-type
Assay: as above
Conditions: peptide library: pTyr-Var

Enrichment score, inactive:
B1 0.35, B2 0.861, B3 0.785, B4 0.852, B5 0.488, B7 0.604, B8 1.94, B9 0.73, B10 0.566, B11 0.509, B12 0.713, B13 0.266, B14 1.77, B15 1.08, B16 0.737, B17 0.51, B18 0.609, B19 0.5, B20 0.574, B21 0.776, B22 2.51, B23 0.506, B24 0.633, B25 0.75, B26 0.621, B27 0.805, B28 0.918, B29 0.479, B30 0.43, B31 0.995, B32 0.923, B33 0.344, B34 0.913, B35 1.03, B36 0.911, B37 0.648

Enrichment score, active:
B6 3.39

Molecular target: SHP2 N-SH2 domain L43F
Assay: as above
Conditions: peptide library: pTyr-Var

Enrichment score, inactive:
B1 0.307, B2 0.827, B3 0.944, B4 0.994, B5 0.438, B6 2.91, B7 0.535, B8 2.1, B9 0.718, B10 0.702, B11 0.732, B12 0.8, B13 0.442, B14 1.96, B15 1.65, B16 0.907, B17 0.731, B18 0.612, B19 0.644, B20 0.537, B21 0.859, B22 1.96, B23 0.654, B24 0.744, B25 0.522, B26 0.614, B27 0.963, B28 1.02, B29 0.526, B30 0.691, B31 0.983, B32 1.08, B33 0.47, B34 0.648, B35 0.743, B36 0.828, B37 0.774

Molecular target: SHP2 N-SH2 domain T42A
Assay: as above
Conditions: peptide library: pTyr-Var

Enrichment score, active:
B14 4.06

Enrichment score, inactive:
B1 0.459, B2 0.814, B3 0.79, B4 0.857, B5 0.527, B6 2.94, B7 0.583, B8 2.29, B9 0.581, B10 0.673, B11 0.532, B12 0.57, B13 0.3, B15 1.54, B16 0.546, B17 0.72, B18 0.582, B19 0.618, B20 0.429, B21 0.611, B22 2.05, B23 0.635, B24 0.583, B25 0.562, B26 0.523, B27 0.61, B28 0.78, B29 0.483, B30 0.379, B31 0.97, B32 0.862, B33 0.401, B34 0.564, B35 0.736, B36 0.691, B37 0.62

Molecular target: SHP2 N-SH2 domain T52S
Assay: as above
Conditions: peptide library: pTyr-Var

Enrichment score, inactive:
B1 0.422, B2 0.956, B3 0.798, B4 1.15, B5 0.386, B6 2.86, B7 0.592, B8 2, B9 0.812, B10 0.736, B11 0.625, B12 0.542, B13 0.373, B14 2.3, B15 0.968, B16 0.618, B17 0.704, B18 0.626, B19 0.667, B20 0.45, B21 0.671, B22 3.09, B23 0.583, B24 0.629, B25 0.789, B26 0.628, B27 0.985, B28 0.774, B29 0.437, B30 0.629, B31 1.12, B32 0.843, B33 0.558, B34 0.688, B35 0.667, B36 0.827, B37 0.634

Molecular target: SHP2 N-SH2 domain wild-type
Assay: as above
Conditions: peptide library: pTyr-Var

Enrichment score, active:
B6 3.44

Enrichment score, inactive:
B1 0.569, B2 0.909, B3 0.79, B4 1.04, B5 0.614, B7 0.678, B8 1.89, B9 0.793, B10 0.721, B11 0.81, B12 0.986, B13 0.527, B14 1.77, B15 1.51, B16 1.09, B17 0.648, B18 0.757, B19 0.568, B20 0.605, B21 0.696, B22 2.11, B23 0.65, B24 0.779, B25 0.855, B26 0.669, B27 0.781, B28 0.871, B29 0.594, B30 0.629, B31 1.12, B32 0.877, B33 0.4, B34 0.685, B35 0.968, B36 0.732, B37 0.911
